The full ranking holds about 33,000 sequences; the median of “E-score (-0.5 to 0.5)” is about -0.013, and the highest 2% start at about 0.3. The list shows a part of the results.

This assay deals with T1, Msn1 (UniProt P22148).
T1 sequence: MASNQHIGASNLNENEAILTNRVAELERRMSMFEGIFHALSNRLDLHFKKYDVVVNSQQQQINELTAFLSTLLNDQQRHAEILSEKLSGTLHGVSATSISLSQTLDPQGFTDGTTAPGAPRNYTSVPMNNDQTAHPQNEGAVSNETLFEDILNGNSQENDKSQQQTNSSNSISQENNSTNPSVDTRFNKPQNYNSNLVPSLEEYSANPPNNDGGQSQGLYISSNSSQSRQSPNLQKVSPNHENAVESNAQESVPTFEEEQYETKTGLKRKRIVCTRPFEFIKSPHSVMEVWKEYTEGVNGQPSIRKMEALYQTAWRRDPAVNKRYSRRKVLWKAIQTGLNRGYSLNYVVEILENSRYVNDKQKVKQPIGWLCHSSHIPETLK
Nature of the assay: PBM E-score (8-mer binding enrichment) (E-score (-0.5 to 0.5)); higher = stronger / more preferred TF binding; most listed sequences are background and not binding sites. The note with it: protein concentration: 200 nM; construct: GST-full length. In outline:
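Masliner-normalised scans of fluorescent anti-GST signal were the basis for scoring. That signal came from GST-tagged yeast transcription factors applied at about 100-200 nM to double-stranded universal all-10-mer Agilent arrays on fresh or once-stripped slides. Each ungapped eight-base word, pooled with its reverse complement, received an E-score from the Universal PBM Analysis Suite.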
Take CCTTCGTA: the “PBM E-score” value was -0.16.

As to CACATCTG, the “PBM E-score” value was -0.154.

ATACCGGC: the “PBM E-score” value is 0.0363.

For CTGTTTAA, the “PBM E-score” value came out at 0.0247.

Regarding AGCAGGCG, the “PBM E-score” value came out at 0.0269.

CGGGCCGC: the “PBM E-score” value was -0.0688.

GACGTTGA: the “PBM E-score” value was -0.0706.

Turning to GCACAGGC, the “PBM E-score” value is -0.114.

For CAGACGGC, the “PBM E-score” value was -0.207.

Consider TACAAAAA, for which the “PBM E-score” value was found to be 0.264.

Take AACATTAG: the “PBM E-score” value was -0.0152.

In the case of CGTCACAC, the “PBM E-score” value is -0.0547.

With CCCTCCAC, the “PBM E-score” value is -0.092.

For CAGCAGGG, the “PBM E-score” value is -0.274.

As to CGTGACTC, the “PBM E-score” value is -0.0728.

Regarding ATCAAAAA, the “PBM E-score” value came to 0.214.

For the sequence GATATCCA, the “PBM E-score” value worked out at 0.0655.

With ATAAGACG, the “PBM E-score” value was -0.105.

As to ACCGCGCG, the “PBM E-score” value came to 0.114.

In the case of TATCCTGA, the “PBM E-score” value was 0.0592.

Take ACAACTGG: the “PBM E-score” value turned out to be 0.0262.

In the case of TTCTAGAA, the “PBM E-score” value turned out to be 0.00769.

For ACGGGTCC, the “PBM E-score” value worked out at 0.0102.

Regarding ATTACCAG, the “PBM E-score” value is -0.0811.

Consider ACATCTCA, for which the “PBM E-score” value was 0.115.

In the case of GAAATACA, the “PBM E-score” value is -0.0197.

For the sequence GTGGTCAA, the “PBM E-score” value is -0.188.

CGAGATAC: the “PBM E-score” value turned out to be 0.182.

Consider CTCTGGGA, for which the “PBM E-score” value is -0.112.

AGTGGGCA: the “PBM E-score” value was -0.00096.

In the case of AGTCCACC, the “PBM E-score” value worked out at 0.0587.

AAGAAGAG: the “PBM E-score” value is -0.019.

Take GCGACGCA: the “PBM E-score” value turned out to be 0.0716.

For TGTACTAA, the “PBM E-score” value is 0.321.

For the sequence ACCATGGA, the “PBM E-score” value is -0.00474.

In the case of GCGTGGAC, the “PBM E-score” value is 0.172.

For CGTGTCTA, the “PBM E-score” value turned out to be 0.166.

With ACGCGAAC, the “PBM E-score” value is 0.0104.

For AGCTTTTA, the “PBM E-score” value is -0.0221.

Regarding CGGGCTAC, the “PBM E-score” value was found to be 0.18.

As for CTAACTGA, the “PBM E-score” value was found to be 0.0193.

With GATCAATA, the “PBM E-score” value was -0.0199.

Turning to CAAGTAGC, the “PBM E-score” value is -0.00336.

Consider ATAATTCG, for which the “PBM E-score” value came to 0.0794.

On to CGTCCACG, for which the “PBM E-score” value turned out to be 0.155.

Take AGAAACTA: the “PBM E-score” value was -0.0608.

On to CTCAGCTA, for which the “PBM E-score” value is -0.0867.

TATGAGAA: the “PBM E-score” value stood at 0.0684.

With AGGAACAT, the “PBM E-score” value turned out to be 0.104.

CGGTGCAA: the “PBM E-score” value is -0.136.

Take CTCACCAG: the “PBM E-score” value was -0.105.

For the sequence ACCAAGTC, the “PBM E-score” value stood at 0.0143.

Consider TGCCGCAA, for which the “PBM E-score” value was determined as 0.106.

Consider CAATTCAC, for which the “PBM E-score” value was 0.0172.

Turning to TGAGCACA, the “PBM E-score” value is -0.0787.

Regarding ACGTACCT, the “PBM E-score” value was -0.0473.

In the case of CCTCACGC, the “PBM E-score” value turned out to be 0.0345.

In the case of AATTCCGT, the “PBM E-score” value is 0.162.

CCCCGACA: the “PBM E-score” value worked out at 0.105.

With ACGCATGA, the “PBM E-score” value was determined as 0.0653.

In the case of CGAGTATC, the “PBM E-score” value is -0.121.

Take GCGCCAGC: the “PBM E-score” value is -0.173.

As for ATCCCGGA, the “PBM E-score” value came to 0.194.

Consider CAACCAGC, for which the “PBM E-score” value was -0.114.

With ACAGGGGG, the “PBM E-score” value is -0.471.

With AAATGGAT, the “PBM E-score” value is -0.0165.

Take AGGAGCGC: the “PBM E-score” value was -0.207.

Regarding GGCTGATA, the “PBM E-score” value is -0.0273.

In the case of GAATTACC, the “PBM E-score” value worked out at 0.0764.

GGCTGCCC: the “PBM E-score” value was -0.215.

As to GTACGGAC, the “PBM E-score” value was determined as 0.261.

For the sequence ACGAGCGG, the “PBM E-score” value was -0.176.

As to CCGGTTGA, the “PBM E-score” value is -0.0935.

For GGGGATTA, the “PBM E-score” value was -0.228.

Consider TGCAAAAA, for which the “PBM E-score” value was 0.105.

Consider ATCGTGGC, for which the “PBM E-score” value is -0.139.

For the sequence ATTTCTCG, the “PBM E-score” value came to 0.255.

In the case of AATAGCAT, the “PBM E-score” value worked out at 0.109.

Take AGCTCTGA: the “PBM E-score” value was -0.158.

For the sequence AGACGACC, the “PBM E-score” value is -0.182.

With AGCGACCT, the “PBM E-score” value is -0.0614.

With GCTAGTCC, the “PBM E-score” value stood at 0.215.

Turning to AATTCTCA, the “PBM E-score” value stood at 0.0796.

As for AAAGAAAG, the “PBM E-score” value is 0.0461.

For AGGTGGAG, the “PBM E-score” value is -0.147.

In the case of GAAACAAA, the “PBM E-score” value came to 0.186.

Take CTAGCTAG: the “PBM E-score” value came out at 0.0713.

Turning to CGATGCGA, the “PBM E-score” value is -0.147.

Take GAAGTTCA: the “PBM E-score” value is -0.00825.

For AACCGCGC, the “PBM E-score” value turned out to be 0.0302.

Regarding ACTTTCGC, the “PBM E-score” value is 0.0997.

For AACCAGGT, the “PBM E-score” value was -0.0554.

Consider AGGGCCGC, for which the “PBM E-score” value was -0.0735.

In the case of ATCGAACC, the “PBM E-score” value was -0.0171.

On to ACAACTCG, for which the “PBM E-score” value came to 0.21.

As to ACAGTACC, the “PBM E-score” value was -0.0814.

Consider AGCATACC, for which the “PBM E-score” value is -0.0756.

On to CCAAAAGC, for which the “PBM E-score” value is 0.0259.

As to CAGGCATC, the “PBM E-score” value is -0.0274.

Take AGGATTAT: the “PBM E-score” value is -0.0424.

GCCTTATA: the “PBM E-score” value was -0.0588.

As for AATGATCT, the “PBM E-score” value is 0.191.

In the case of CGGATGGA, the “PBM E-score” value was 0.0989.

In the case of CGTCAAAG, the “PBM E-score” value is 0.038.

As to CCTTATAA, the “PBM E-score” value was 0.0581.

GTGTGGGA: the “PBM E-score” value is 0.0637.

Consider CGAAAACG, for which the “PBM E-score” value is 0.146.

In the case of CATTCATC, the “PBM E-score” value is -0.00585.

With TCAGCGGA, the “PBM E-score” value stood at 0.0824.
